Measured values taken from PubChem BioAssay AID463254 (National Center for Advancing Translational Sciences (NCATS), 2010).
In all, about 330,000 compounds went through this assay and about 40 (0.01%) were called active. This list was built around the results that the source calls inconclusive (neither active nor inactive); the mix of calls is not that of the screen. Calls come from the whole dose curve; as a rule, active = well fitted inhibition curve with a large enough effect; inconclusive = small, poorly fitted or top-dose-only effect, or effect the other way; inactive = flat fitted curve, though single readings scatter. Where the call is inconclusive, the potency comes from a doubtful curve fit.

Biological target: Ubiquitin carboxyl-terminal hydrolase 2 (Homo sapiens) (UniProt O75604)
UniProt O75604, sequence (O75604 whole entry, looked up): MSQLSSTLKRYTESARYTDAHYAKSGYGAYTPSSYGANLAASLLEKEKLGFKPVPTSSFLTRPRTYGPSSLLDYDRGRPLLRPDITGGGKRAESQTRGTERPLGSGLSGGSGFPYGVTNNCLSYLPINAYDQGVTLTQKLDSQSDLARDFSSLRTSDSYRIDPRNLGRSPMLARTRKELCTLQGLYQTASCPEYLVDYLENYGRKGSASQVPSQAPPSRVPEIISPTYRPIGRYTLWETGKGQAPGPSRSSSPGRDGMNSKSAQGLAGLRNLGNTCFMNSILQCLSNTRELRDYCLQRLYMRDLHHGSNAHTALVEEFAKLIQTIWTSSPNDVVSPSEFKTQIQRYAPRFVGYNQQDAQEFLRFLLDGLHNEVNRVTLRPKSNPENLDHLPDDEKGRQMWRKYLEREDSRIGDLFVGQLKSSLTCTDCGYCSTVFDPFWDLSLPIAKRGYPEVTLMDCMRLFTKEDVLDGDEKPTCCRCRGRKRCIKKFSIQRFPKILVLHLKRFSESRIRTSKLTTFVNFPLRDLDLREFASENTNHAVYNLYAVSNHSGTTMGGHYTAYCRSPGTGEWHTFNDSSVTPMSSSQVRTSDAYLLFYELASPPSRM
Test: qHTS Assay for Inhibitors of Ubiquitin-specific Protease USP2a Using CHOP2 as the Reporter;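 for activity change, negative = inhibition: plate controls were DMSO wells for no effect and full inhibition by NEM control for full effect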
Conditions: USP2 core, Ub-CHOP2 coupled fluorogenic reporter, 485/531; activity change, negative = inhibition: at 38.3 µM (top of the series)
Method in brief: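 Deubiquitinase activity read as fluorescence (485/531 nm) after Ub-CHOP2 cleavage activates the enterokinase reporter on its substrate; USP2 core 10nM, Ub-CHOP2 and substrate 25nM each, 30min compound preincubation then 60min RT; data normalized to NEM, curves fitted.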
Potency is the fitted concentration of half-maximal effect; tags give direction and shape of the fitted curve or compound fluorescence and quenching.

Compound	Potency	activity change, negative = inhibition
COc1ccc(O)c(-c2cc(-c3ccc(F)cc3)n[nH]2)c1	inconclusive: 28.2 µM [falling, single point]	–
Cc1ccccc1N1C(=O)c2cccc3c(N(C)CCO)ccc(c23)C1=O	inconclusive: 11.2 µM [fluorescent, single point]	–
Cc1ccc(C)c(S(=O)(=O)N2CCN(C(=O)CSc3ccccc3F)CC2)c1	–	inactive: 1.56%
CCN1CCN(Cc2c(O)ccc3c2O/C(=C\c2ccccc2)C3=O)CC1	inconclusive: 10 µM [fluorescent, partial curve]	–
O=C(CCN1CCCCCC1)c1ccccc1	–	inactive: 0.859%
COC(=O)c1ccccc1-c1c2ccc(=N)cc-2oc2cc(N)ccc12	inconclusive: 7.08 µM [fluorescent, partial curve]	–
COc1cc(/C=N/NS(=O)(=O)c2ccc(C)cc2)ccc1OCc1cccc(C(=O)O)c1	–	inactive: 3.24%
O=C(NNCc1ccc(O)cc1)c1ccccc1Cl	–	inactive: -0.148%
Cc1cccn2c(=O)c3cc(C(=O)NCCN4CCOCC4)c(=N)n(CCN4CCOCC4)c3nc12	inconclusive: 5.01 µM [falling, single point]	–
COC(=O)c1c(NC(=O)c2cccnc2)sc(C)c1C	inconclusive: 5.01 µM [falling, single point]	–
Cc1csc(NC(=O)CCn2c(=O)sc3ccccc32)n1	inconclusive: 22.4 µM [falling, single point]	–
Cc1c(NC(=O)C2CCCN2S(=O)(=O)c2ccc(Cl)cc2)c(=O)n(-c2ccccc2)n1C (stereo unspecified)	inconclusive: 5.01 µM [falling, single point]	–
CCN1/C(=C/C=C/C=C/c2sc3ccccc3[n+]2CC)Sc2ccccc21	inconclusive: 22.4 µM [falling, single point]	–
COc1cc(/C=C2\Oc3cc(O)ccc3C2=O)ccc1O	inconclusive: 11.2 µM [fluorescent, single point]	–
O=C(C1CC(=O)N(C2CCCC2)C1)N1CCC(Cc2ccccc2)CC1 (stereo unspecified)	–	inactive: 1.4%
CC1CC(C)CN(C(=O)CSc2nnc(-c3ccc(Cl)cc3)o2)C1 (stereo unspecified)	inconclusive: 28.2 µM [falling, single point]	–
CCn1c(=O)c(C(=O)CN(C)CC(=O)Nc2ccccc2Br)c(N)n(Cc2ccccc2)c1=O	–	inactive: 1.8%
c1ccc(-c2ccccc2OCCCN2CCOCC2)cc1	inconclusive: 28.2 µM [falling, single point]	–
Cc1ccc(C(=O)Oc2coc(CSc3nnc(NC(=O)c4cccs4)s3)cc2=O)cc1	inconclusive: 5.01 µM [falling, single point]	–
CC(C)(C)C1CCC(=NNC(=O)CN(c2ccccc2)S(C)(=O)=O)CC1 (stereo unspecified)	inconclusive: 28.2 µM [falling, single point]	–
CC(=O)c1ccc2c(c1)C1C=CCC1C(C(=O)O)N2 (stereo unspecified)	active: 11.2 µM	–
Cc1ccccc1OCc1nc2ccccc2c(=O)n1N	inconclusive: 28.2 µM [falling, single point]	–
Cc1ccc(-c2noc(CCC(=O)NCCCN3CCN(c4cccc(Cl)c4)CC3)n2)cc1	–	inactive: -1.6%

Compound	Potency	activity change, negative = inhibition
Cc1cc(C(=O)Nc2cccc3c2O[C@@H](CN(C)S(=O)(=O)c2ccccc2)[C@H](C)CN([C@@H](C)CO)C3=O)n(C)n1	–	inactive: 5.33%
Cc1cc(C)cc(OCC(=O)Nc2ccc(N3CCCC3)cc2)c1	inconclusive: 28.2 µM [falling, single point]	–
COc1cc(-c2cc(-c3ccc(N)cc3)[nH]c(=O)c2C#N)cc(OC)c1OC	inconclusive: 28.2 µM [fluorescent, single point]	–
Cc1ccc(S(=O)(=O)N2[C@@H](c3ccc(C(C)(C)C)cc3)C(C(=O)O)=CC[C@H]2c2ccc(C(C)C)cc2)cc1	inconclusive: 14.1 µM [falling, single point]	–
CSCCC(NC(=O)c1cc(C(C)(C)C)oc1C)C(=O)O (stereo unspecified)	inconclusive: 3.98 µM [falling, single point]	–
CC(C)(C)C(=O)/C=c1\s/c(=C\c2ccc(-c3ccc([N+](=O)[O-])cc3)o2)c(=O)n1CC(=O)NC(N)=O	inconclusive: 11.2 µM [fluorescent, single point]	–
Cc1cccc(N2C(=O)CC(Sc3nccc(C)n3)C2=O)c1 (stereo unspecified)	–	inactive: -1.49%
COc1ccc(N)cc1C#N	inconclusive: 28.2 µM [falling, single point]	–
COc1ccc(C(=O)/C=C/c2ccc(N(C)C)cc2)c(OC)c1	inconclusive: 10 µM [fluorescent, partial curve]	–
CC1=NN(c2ccc(C(=O)O)cc2)C(=O)/C1=C\c1ccc(OC(=O)c2cccs2)cc1	inconclusive: 28.2 µM [falling, single point]	–
Oc1ccc2ccccc2c1C=Nc1ccc(Cl)cn1	–	inactive: -0.264%
O=C(NCCc1ccccc1)c1ccc2nc(-c3ccco3)c(-c3ccco3)nc2c1	inconclusive: 14.1 µM [falling, single point]	–
CCOC(=O)CNC(=O)CN1CCCN(S(=O)(=O)c2ccc(Br)s2)CC1	–	inactive: -0.386%
Cn1c(=O)c(N)c2c3c(c(Br)ccc31)C(=O)c1ccccc1-2	inconclusive: 3.98 µM [fluorescent, full curve]	–
Cc1cc(C)n(S(=O)(=O)c2cc(C)c(C)cc2C)n1	–	inactive: 2.75%
CC(=O)c1ccc(NC(=O)CC(NCCC2=CCCCC2)C(=O)O)cc1 (stereo unspecified)	inconclusive: 5.01 µM [falling, single point]	–
O=c1c2ccccc2nc(-c2ccccc2)n1Cc1ccc(Cl)cc1	–	inactive: 2.23%
CCc1nc(Nc2cccc(F)c2)c2oc3ccccc3c2n1	–	inactive: 4%
CC1(C)CC(=O)C=C(Nc2ccccn2)C1	–	inactive: -1.61%
CC1CCN(S(=O)(=O)N2CCC(C(=O)NCc3ccc4c(c3)OCO4)CC2)CC1	–	inactive: 0.419%
Cc1c(O)c2c3c(cccc3c1O)C(=O)N(c1ccccc1)C2=O	inconclusive: 10 µM [fluorescent, single point]	–
Cc1ccc(N2C(=O)C(Cl)=C(N3CCCCCC3)C2=O)cc1	–	inactive: -4.28%
COc1ccc2c3c(cccc13)C(=O)CC2	inconclusive: 10 µM [fluorescent, partial curve]	–
